# In all, about 420,000 compounds went through this assay and about 64,000 (15%) were called active. This list was built around the results that the source calls inconclusive (neither active nor inactive); the mix of calls is not that of the screen. The call rests on the fitted dose curve; in most records, active means well fitted inhibition curve with a large enough effect; inconclusive means small, poorly fitted or top-dose-only effect; inactive means flat fitted curve, though single readings scatter. No potency is given beside an inconclusive call; the fits are too rough.
# Experiment: qHTS for Inhibitors of human tyrosyl-DNA phosphodiesterase 1 (TDP1): qHTS in cells in absence of CPT; further: nearly all actives have a fitted effect of over 55% in size
# Conditions: DT40 Tdp1-/- hTDP1 cells, no CPT, ATP luminescence, 48 h; activity change, negative = growth inhibition: at 46.2 µM (top of the series)
# Method in brief: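 Readout: luminescence from CellTiter-Glo after 30 min in the dark at RT. Cells: DT40 Tdp1-/- with stable hTDP1, 400/well. Exposure: compounds alone, ≥48 hr, 37 °C.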
# On the % scale 0 is the no-effect control and ±100 the full control effect; potency means the concentration at half of the fitted maximal effect; tags describe the fitted curve by direction and shape.
Compound,Potency,"activity change, negative = growth inhibition"
COc1cccc(-c2cccc(-c3nc(C(=O)NCc4ccc(Oc5ccccc5)cc4)cc4c3[C@H](CCO)N(S(=O)C(C)(C)C)C4)c2)c1 (some centres not stated),"inconclusive [inhibitor, single point]",–
Brc1ccc(N/N=C(/N=Nc2nn[nH]n2)c2ccccc2)cc1,active: 2.59 µM,–
COc1ccc(NC(=O)c2cc3ccccc3o2)c(OC)c1,"inconclusive [inhibitor, single point]",–
CSc1cccc(NC(=O)c2cccc3cccnc23)c1,"inconclusive [inhibitor, single point]",–
O=C(NNC(=O)c1cc(Br)c(Br)s1)c1ccncc1,–,inactive: -3.67%
Cc1ccccc1NC(=O)NNC(=O)CCc1ccccc1,–,inactive: 3.65%
COc1ccc2oc(C(=O)OCC(=O)N(C)c3ccccc3)c(C)c2c1,–,inactive: -28.4%
COC(=O)c1cccc(Cn2c(Cl)c(/C=N/NC(=O)c3ccccc3Cl)sc2=O)c1,"inconclusive [inhibitor, single point]",–
CC(=O)OC[C@H]1O[C@@H](Sc2cccc3cccnc23)[C@H](OC(C)=O)[C@@H](OC(C)=O)[C@H]1OC(C)=O,–,inactive: -85.7%
COc1cccc(NC(=O)CCC2CCN(C(=O)c3cncs3)CC2)c1,–,inactive: -1.95%
CCc1cc(=O)[nH]c(SCc2cccc3ccccc23)n1,–,inactive: -17.9%
CCOc1ccccc1NC(=O)Cc1coc2ccc(C)cc12,active: 16.4 µM,–
CC1(C(=O)NS(=O)(=O)c2cccc(Cl)c2)CCN1C(=O)CC1CC1 (configuration not stated),–,inactive: -11.9%
O=C(Nc1ccc(C(=O)N2CCOCC2)cc1)c1ccccc1[N+](=O)[O-],–,inactive: 0.0794%
CC(C)(C)NC(=O)CN1C(=O)c2cccc3cccc1c23,–,inactive: -27.8%
Cc1ccccc1OCC(=O)NNC(=O)CN1C(=O)c2ccccc2C1=O,–,inactive: 4.43%
O=C(c1ccc(F)cc1)c1cn(Cc2ccccc2)c2cc3c(cc2c1=O)OCO3,"inconclusive [inhibitor, single point]",–
C=CCNC(=O)c1ccccc1NC(=O)c1ccc(Cl)c(S(=O)(=O)Nc2ccccc2)c1,"inconclusive [inhibitor, single point]",–
COc1cccc(N2CCN(C(=O)Nc3ccccc3Cl)CC2)c1,–,inactive: -31.4%

Compound,Potency,"activity change, negative = growth inhibition"
CCOC(=O)N1CCN(C(=O)CSc2nc(=O)n3cccc(C)c3n2)CC1,–,inactive: 13.5%
Cc1ccc2c(c1)c1c(n2CC2COC(C)(C)O2)C(=O)CCC1 (configuration not stated),–,inactive: -27.7%
COc1ccc(-c2cc(C(=O)NCc3cn(C)nc3C)c3ccccc3n2)cc1OC,"inconclusive [inhibitor, single point]",–
Cc1oc(-c2ccc(C(=O)Nc3ccc(F)cc3)cc2)nc1COc1ccccc1,"inconclusive [inhibitor, full curve, poor fit]",–
O=C(CN1CCCCC1)Nc1ccccc1-c1ccccc1,"inconclusive [inhibitor, single point]",–
CC1=C(C(=O)N(C)C)CC(CC(=O)NC2CCCC2)C(=O)N1Cc1ccc(F)cc1 (configuration not stated),–,inactive: -23.9%
COc1ccc(NC(=O)CSCC(=O)N2c3ccccc3CCc3ccccc32)cc1,"inconclusive [inhibitor, partial curve, poor fit]",–
C[C@@H]1CCCCO[C@H](CN(C)C(=O)Nc2ccc(C(F)(F)F)cc2)[C@@H](C)CN([C@H](C)CO)C(=O)c2cc(NC(=O)Nc3ccc4c(c3)OCO4)ccc2O1,"inconclusive [inhibitor, full curve, poor fit]",–
COc1ccc(C2=CC(c3cc(Br)ccc3F)n3c(nc4ccccc43)N2)cc1 (configuration not stated),"inconclusive [inhibitor, single point]",–
O=C(Nc1c(C(=O)N2CCN(c3ccccc3F)CC2)oc2ccccc12)c1cccc(F)c1,"inconclusive [inhibitor, single point]",–
CCOC(=O)C1CCN(C(=O)COC(=O)c2ccc([N+](=O)[O-])o2)CC1,–,inactive: -9.14%
CCC1CCCCN1C(=O)Nc1cccc(NC(=O)N2CCCCC2CC)c1 (configuration not stated),"inconclusive [inhibitor, partial curve, poor fit]",–
Cc1nnc(SCc2nc3ccccc3[nH]2)s1,–,inactive: -12.9%
O=C(NC(=S)Nc1cccc(Cl)c1Cl)C1CC1,"inconclusive [inhibitor, single point]",–
Cc1ccc2[nH]c(=O)c3cc(C(=O)N4CCN(C(=O)c5ccco5)CC4)sc3c2c1,–,inactive: -14.5%
CCOC(=O)c1c(-c2ccccc2)csc1NC(=O)CSc1nncs1,active: 16.4 µM,–
COc1ccc(OCC(=O)NC(=S)NNC(=O)COc2ccc(Br)cc2Cl)cc1,"inconclusive [inhibitor, partial curve, poor fit]",–
Cc1ccc(C(=O)N/C(=C\c2cccc([N+](=O)[O-])c2)C(=O)OCN2C(=O)c3ccccc3C2=O)cc1,"inconclusive [inhibitor, single point]",–

# Source: PubChem BioAssay AID686978 (National Center for Advancing Translational Sciences (NCATS), 2013)
